Data published in the supplement of paper PMC11417369.
± gives the standard deviation of the averaged measurements. This is one part of the list.

tested on: PfAP2-G AP2 domain (GST-tagged); assay: gcPBM binding intensity (ln(normalized median fluorescence intensity)); higher = stronger DNA binding
Summary of the method: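 DNA-binding domains from P. falciparum, fused to GST and produced in E. coli, were put on an Agilent 4 × 180k double-stranded probe array for 1 h in 1× PBS holding 1% milk, 0.2 mg/ml BSA, 0.5% salmon testes DNA and 0.03% Triton X-100. Probes were primer-extended, 36 bp long and drawn from intergenic genomic regions, with negative controls included. After Alexa488 anti-GST antibody detection and a 488 nm scan, binding intensity was set as the highest Masliner-normalised natural-log median intensity across replicate spots of either probe orientation.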

Sequence | gcPBM binding intensity (ln)
TATTTATATTCCTTTACACACTCCATCTTATATCCA [CACACA_site3604] | 9.99 ± 0.11
AACAATTATTTGTCGACACACGTATATGTTATTTAG [CACACA_site5046] | 10.3 ± 0.049
TATATATTAATATTTACACACATGCGCACCCATAAA [CACACA_site2410] | 10.7 ± 0.54
ATATCCATAATAAAAACATGCAACAGAAAAAAAAAA [TGCATGCA_site497] | 9.82 ± 0.028
AAGAGAAATATATATTGTACAATAATTTTATTTGGT [XGTACX_site7642] | 10.9 ± 0.36
TTCCAAAAAATTATTACACACATATGAGCACATATA [CACACA_site4543] | 10.1 ± 0.18
TAATATACATATATATGTACATATATATATATATAT [XGTACX_site2684] | 11.1 ± 0.76
TATTAATTAAAAAAATGTACATAATTATAAATTTTT [XGTACX_site7994] | 11.1 ± 0.68
TACGGTTGTTTATTTTGTACGTAAAAAATATATTAT [XGTACX_site8393] | 11.5 ± 0.82
ATATAAATAAATACAACACACATGTCATATCTAAAT [CACACA_site7533] | 9.855 ± 0.078
TATATACATAAAATTTGTACATATATATATATATAT [XGTACX_site3214] | 10.7 ± 0.44
AAAAAAAAAAAATGAGCACACATAAATAAAAACAAA [CACACA_site8447] | 10.2 ± 0.12
TTAAAAAATTATTGTAGTACATAGGAAATGAAAAAA [XGTACX_site155] | 11.6 ± 1
TAAATTAAATATTATAAACACACATATATATTATTT [CACACA_site8189] | 9.61 ± 0.2
AAATTACATACACGCGCACACACAAAAAAAAAAAAA [CACACA_site1335] | 10.6 ± 0.68
ATATTATTCTTATATTCACACAGTTTATATTTCCGT [CACACA_site5653] | 9.88 ± 0.19
GTATATATATTTCTTTAATAATTAAATTATAAATAT [CACACA_negctrl_site640] | 9.8 ± 0.15
TGGCAAAATAGGCACACACACATATACATATATATT [CACACA_site1059] | 10.2 ± 0.19
TATATAATTAAAATAACACACATATATAAAAATATA [CACACA_site2990] | 9.72 ± 0.24
ATATTATAGTATATAACACACATTTTTCATAACACT [CACACA_site6331] | 9.89 ± 0.13
ATAATATATAAACACACACACATATATAAATACATT [CACACA_site4466] | 9.895 ± 0.007
CATGCCGTTAAATTATGTACTTATTATTTTAATATG [XGTACX_site4209] | 11.3 ± 1

Sequence | gcPBM binding intensity (ln)
AATATATAAACACGTACACACACATATATGTATATA [CACACA_site9168] | 11.6 ± 1
AATTTAAATATTTGTTGTACGTATTTATATATTCTT [XGTACX_site3623] | 11.6 ± 0.88
TATTATATCTTATATGTATATTCCCACAAATTATAT [GTGCAC_negctrl_site362] | 10.01 ± 0.099
TCACATATTATCTTTACACACTATAAATAAGTTTTA [CACACA_site7335] | 9.97 ± 0.028
TTGATATTTTTTTTATGTACACATGTTCATATTTTT [XGTACX_site8095] | 11.5 ± 0.79
ATTTAAAAAAGAAAGGTGCATTTCAATAATGTAAAA [GTGCAC_site9585] | 10 ± 0.13
TCATCTTTTATATGTTGTACGTATTTTCATTTATAT [XGTACX_site4855] | 11.5 ± 0.91
AAGTAGTGTTAATACTGTACTTATATTTTTTATTAT [XGTACX_site8264] | 11.4 ± 0.89
TTATTATATATATCTCGTACGTGTATACGCCTACCA [XGTACX_site8375] | 10.9 ± 0.54
TGTTATATTTCAAATTGTACTAATCTAATTAATAAA [XGTACX_site604] | 11 ± 0.69
AAAAAAATGAAACACACACACACATATATATATATA [CACACA_site1043] | 10.3 ± 0.69
AAACAATTACACATATGTATGTATATATATATATAT [TGCATGCA_negctrl_site536] | 10 ± 0.22
ACAAAGTTTATAGAACGTACATACTTACACATATTT [XGTACX_site556] | 11.1 ± 0.6
TTTTTTTCTTTTTGAGGTACGCATTATTTTATTTGT [XGTACX_site6996] | 11.3 ± 0.79
ATAATTTGATGGTTAACACACATATAGATTATAGAT [CACACA_site7200] | 9.96 ± 0.057
AAAGATTGCGATGGTTGTACTTTTCTATATTTTTTT [XGTACX_site3492] | 11.3 ± 0.74
CTAAAATACGAACACACACACACATATAAATAAATA [CACACA_site7872] | 10.3 ± 0.45
TATACTTCTTATTAAATGAGTAGTATATATTATATA [TGCATGCA_negctrl_site299] | 10 ± 0.28
TTTTTTAAAAGAAAATAAAAAATAAGCATAATATGA [CACACA_negctrl_site1574] | 9.97 ± 0.014
AAGGGTTATTTGATATGTACTTATATATATATATAA [XGTACX_site1659] | 11.1 ± 0.87
AAGGTGGAAACAATTACACACACACTAATAAAAAAA [CACACA_site9051] | 10.1 ± 0.22
AAGTACAAATTTAATAAAAATGAAACAAATATGTAT [TGCATGCA_negctrl_site94] | 10.37 ± 0.092

Sequence | gcPBM binding intensity (ln)
AAAAACCATGGGCACACACACATAATATATAATATA [CACACA_site1425] | 10.6 ± 0.43
GTTATATATATATATATATATATATATATTTTTTTT [GTGCAC_negctrl_site597] | 9.62 ± 0.099
TATATCGTTAATTATACACACATAAAATTAAACTTT [CACACA_site1274] | 10.1 ± 0.25
ATGGAATTTTTAGAATATGGATAATGTTACTTAAGT [CACACA_negctrl_site494] | 9.945 ± 0.078
ACCATACATACATACACACACACACGCATATTTATA [CACACA_site7386] | 10.4 ± 0.28
TAATTTTAAATATCTTCACACATTATATTTTTATAT [CACACA_site5411] | 9.62 ± 0.13
TATAATAATACTTATTGTACGATTAGCTTAATTCGT [XGTACX_site15] | 10.9 ± 0.5
TATATAAATAGATACACACATACATACATACATACA [CACACA_site260] | 10.4 ± 0.31
AAATTAAAAAAGAATATACACACCAAAACTGTTTGT [CACACA_site958] | 9.77 ± 0.26
TAAAAAAAGGAAAACATACAATTCTATTTTTCAATA [CACACA_negctrl_site474] | 9.64 ± 0.042
TACAAACTATGATGCACACATATATATCTGTATCCA [CACACA_site4809] | 9.995 ± 0.078
TATTTTAATTAATATACACACGCTTATATATATATA [CACACA_site7909] | 10.1 ± 0.18
TTTCTTTTTTTTTTTTGTACATATTTTAATTATTTT [XGTACX_site8676] | 11.1 ± 0.68
TATTATATATATAACTGTACGTTTATAATATAAAAA [XGTACX_site3778] | 11.4 ± 1.1
TAATCATTTTAGCTTACACACAAAATTTGGTTATAA [CACACA_site5604] | 9.915 ± 0.007
ACAGGATTGGTTCAAACACACATATTATATGACTAT [CACACA_site4536] | 10.01 ± 0.028
AGTGTTAAAAATGAGGGTACATATAAAATACAGTTC [XGTACX_site457] | 11.2 ± 0.64
ATATTTATTTATATGTGTACTTATGTTTATATAAAA [XGTACX_site4250] | 11.5 ± 0.81
CATATATAAATATGTATGCACTTTAACAAAATGTAT | 9.995 ± 0.007
ATTCCACCTTAAAACTGTACTTTCTCAATCTTTTAT [XGTACX_site796] | 11.4 ± 0.89
TAATAAATAGGACACACACACATATATATATATTAT [CACACA_site4891] | 11 ± 0.63
ATTATGTTATATACACGTACGTGTGCTTTATAATTA [XGTACX_site2728] | 11.2 ± 0.52

Sequence | gcPBM binding intensity (ln)
ATAAAGTAGATATTTTGTACGCAGGTTGTATATATT [XGTACX_site1464] | 11.2 ± 0.6
TACTTTACTAATATATATAGGAGAGTATACATGAAA [CACACA_negctrl_site63] | 10.1 ± 0.23
GGAATTATAATAAATGGTACACATAAAAAAAAAAAA [XGTACX_site8343] | 11.2 ± 0.97
AAATAATACCAAATGTGTACTTATTTCACTAATAGA [XGTACX_site7571] | 11.4 ± 1.1
ATATATACTTATATTTGTACACAAAGGTATCTCTAG [XGTACX_site3805] | 11.2 ± 0.71
GGAATAATAAAATTATGTACATAAGAATCATATACT [XGTACX_site6810] | 11.2 ± 0.37
TTTGATAAATTATACACACACAATATATATAAAATA [CACACA_site2023] | 10.1 ± 0.12
ACGGACTTAAAATACACACACACCAAAAAAAAAAAA [CACACA_site7304] | 10.3 ± 0.52
AAAAAAAAAAATCGCTGTACTTCTAAAGGTGTGTTA [XGTACX_site843] | 11.4 ± 0.82
CAAACAAACGGACACACACACACACCCAAAAATGAT [CACACA_site5363] | 11.2 ± 0.69
AGTTTTATATAAGCTTGTACTTAATATTATTAAGTA [XGTACX_site5919] | 11 ± 0.68
TTTTATTTTTTAGTAGTACACACTTTTTGTACCTTT [CACACA_site599] | 11.8 ± 1
AATAATATATAATAATGTACAAAAAAAAAAAAAAAA [XGTACX_site4158] | 10.6 ± 0.68
AAGCTTTGGTGTTATGCATGCAATTAAACTATTAGT [TGCATGCA_site277] | 9.89 ± 0.071
ATTTTGTTATGAAACACACACATATAAATATAAATA [CACACA_site7679] | 10.2 ± 0.23
AATACACGCAGACACACACACAAAAAAAAAAAAAAA [CACACA_site6384] | 10.2 ± 0.61
TATATAAAACATGGGTGTACCAACATAAATCATATA [XGTACX_site2320] | 10.9 ± 0.64
AATTGTGCATTATATTGTACACGTGTTGTATATATT [XGTACX_site975] | 11.4 ± 0.81
TTGAATATGGTTACATGTACGTATCAATATTTTTTA [XGTACX_site4247] | 11.4 ± 0.78
ATATAACTCAAGGGCACACATATACCTTTCCTTTTT [CACACA_site4390] | 10.4 ± 0.23
GGAACGTATATTTTCACACACTCTCAAAAGTACAAG [CACACA_site2301] | 11.3 ± 0.91
TGTGCACGTTCTGTGACACACATTTAAATGTGCTTA [CACACA_site176] | 10.4 ± 0.21
